Results as given in publication PMC12040169 (PLOS Biology, 2025).
The list shows a part of the results.

System: T1, C. trachomatis L2/434/Bu expressing GFP (CTL2-GFP)
T1 construct: L2/434/Bu GFP intracellular growth in HeLa cells
Parameters: species or system HeLa; C. trachomatis total inclusion area by high-content imaging, normalised to DMSO
Conditions: total inclusion area; 28.5 h, 10 µM; inhibitor
Summary of the method: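 After bulk GFP and resorufin fluorescence reads, cells were fixed, stained with Hoechst and imaged by high-content microscopy. Inclusion area and number (GFP) stood in for chlamydial growth, nuclei count (Hoechst) for host cell viability. MICs were derived as for the bulk readout.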

Structure (SMILES)	% of control remaining
Cc1ccc(S(=O)(=O)Nc2cc(SCC(=O)O)c(O)c3ccccc23)cc1 [CBK265708]	31.2618
C=C(C)CNC(=O)c1cc(-c2ccc(OC)cc2)cnc1NCC1CC1 [CBK076339]	83.9354
CC(CN(C)C(=O)Cn1cccc(C(=O)NC2CCCCC2)c1=O)c1ccccc1 (stereo not drawn) [CBK286066]	86.547
Cn1ccnc1C1(O)CC2CCC(C1)N2C(=O)c1ccco1 (stereo not drawn) [CBK284179]	65.7231
CCCCc1ccc(-c2cnc3nc(O)ccc3c2)cc1 [CBK081296]	72.2096
Cc1ccc(NC(=O)COc2cccnc2)c(C)n1 [CBK200379]	107.434
CC(Cc1cccs1)NC(=O)c1cccc(-n2cnnc2)c1 (stereo not drawn) [CBK282443]	123.126
CNC(=O)CCCc1[nH]nc(O)c1Cc1c(Cl)cccc1Cl [CBK085827]	82.0141
O=C(N/N=C/c1ccc(C(=O)O)cc1)C(=O)Nc1cccc(Br)c1 [CBK262185]	98.8095
COc1ccc(OC)c(C(=O)c2coc3ccc(OCC(=O)O)cc23)c1 [CBK111288]	92.7555
C#CCNC(=O)CC[C@H]1CNC(=O)[C@@H]2[C@@H](CCN2Cc2nc3ccccc3n2C)N1C [CBK289018]	122.386
FC(F)(F)c1cnc(Sc2c[nH]nn2)c(Cl)c1 [CBK007252]	89.8646
c1ccc2c(c1)CCC2Oc1cncc(N2CCNCC2)n1 (stereo not drawn) [CBK200005G]	78.8927
CN1C[C@@H](NC(=O)c2ccc3c(c2)OCO3)C[C@H]1c1nc(-c2ccccc2)no1 [CBK288876]	84.6978
O=C(O)CCn1c(SCCc2ccccc2)nc2ccccc21 [CBK262384]	90.2882
Cc1nc(C)c(-c2csc(CC(C)n3cc(Cl)cn3)n2)o1 (stereo not drawn) [CBK304710]	44.5473
Cc1ccc(-c2nn3c(C)nnc3c3ccccc23)cc1S(N)(=O)=O [CBK268342]	91.8455
CCOC(=O)c1c(NC(=O)Cc2ccccc2)sc2c1CCC2 [CBK262309]	85.1409
O=C(Cc1ccc(Br)cc1)Nc1cc(C(=O)O)cc(C(=O)O)c1 [CBK268228]	137.185
O=C(c1cnc(-c2ccccc2)c(-c2cccnc2)c1)N1CCC(S(=O)(=O)c2ccccc2)C1 (stereo not drawn) [CBK036685]	101.441
O=C(C1CC2C=CC1C21CC1)N1CCN(Cc2ccccn2)CC1 (stereo not drawn) [CBK281443]	104.19
CN1CCN(c2ccccc2NC(=O)c2ccc3c(c2)OCCO3)CC1 [CBK268072]	93.5246
Cc1ccc(-n2ncc3c(=O)n(CC(=O)Nc4ccccc4)cnc32)cc1C [CBK287539]	81.9034
O=C(Nc1ccc(SC(F)F)cc1)c1cc(-c2ccncc2)nc2ccccc12 [CBK296092]	103.34
Cc1c(Cl)c([N+](=O)[O-])nn1CC(=O)N1CCN(C)CC1 [CBK261719]	93.8868
Cc1nc(NS(=O)(=O)c2cccc(Cl)c2C)sc1C(=O)O [CBK045561]	91.2596

Structure (SMILES)	% of control remaining
O=C(Nc1cc(N2CCNCC2)ncn1)c1ccccc1 [CBK004215T]	112.835
Cc1cccc(CC(=O)N2CCC(Cc3ccccc3-c3ccccc3C)(C(N)=O)CC2)c1 [CBK285728]	102.902
CCOC(=O)CCCCCCC(=O)N1CCN(c2ccc(C(F)(F)F)cc2)CC1 [CBK091327]	105.077
COC(=O)c1sc2cc(C(F)(F)F)cnc2c1-c1ccccn1 [CBK089888]	84.4595
CCOC(=O)N1CCC(NS(=O)(=O)c2ccc(Cl)c(Cl)c2Cl)CC1 [CBK045471]	111.565
COc1ccccc1C(=O)CN1CCC2(CC1)OCCc1c2[nH]c2ccc(F)cc12 [CBK040238]	96.8031
O=C(COc1cccc2ccccc12)Nc1ccc(O)cc1 [CBK266002]	104.571
CCC(CC)C(=O)N1C[C@H]2CCc3nnc(-c4ccccc4)n3[C@H]2C1 [CBK283439]	99.7488
Cc1cc(C(=O)O)c(C)cc1N [CBK022781]	45.7176
COc1ccc(-c2cc3n[nH]c(=O)n3c(C)n2)cc1 [CBK288439]	91.7398
CC(=O)Nc1ccc(S(=O)(=O)Nc2nnc(CC(C)(C)C)s2)cc1 [CBK049910]	106.837
CCCc1n[nH]c(O)c1Cc1ccc(OCCCN(C)C)cc1 [CBK116249A]	87.4337
Cc1cc(=O)oc2cc(NC(=S)NNC(=O)C(C)Sc3nc4ccccc4s3)ccc12 (stereo not drawn) [CBK267056]	108.056
Cc1cc(C)cc(Cn2cc(NCc3ccccc3)c(=O)[nH]c2=O)c1 [CBK288009]	116.255
Cc1ccc(NC(=O)N(Cc2ccc(-c3ccccc3)cc2)CC(C)(C)CN)cc1[N+](=O)[O-] [CBK002439C]	26.977
O=C(NCCNc1cnccn1)c1cc(F)cc(Br)c1 [CBK304554]	27.4409
COc1ccc(OC)c(S(=O)(=O)N2CCN(c3ncccn3)CC2)c1 [CBK008662]	77.8008
CC(C)c1ccc(CN2CCC3(CC2)CN(CCO)c2ccccc23)cc1 [CBK122708]	77.9956
Cc1cc(C(=O)CSc2nnc(CN3CCCC3)o2)c(C)n1C1CC1 [CBK306199]	66.9356
CN1CCC(N(C)C(=O)NCCc2c[nH]c3ccccc23)C1 (stereo not drawn) [CBK156012]	101.968
CN(C)S(=O)(=O)NC1CC(C)(C)Cc2c1cnn2-c1ccccc1 (stereo not drawn) [CBK307533]	71.9906
CC(C)Cn1c(=O)[nH]c2ncc(-c3cccc4cccnc34)nc21 [CBK064400]	71.6541
O=C(Nc1ccccc1N1CCOCC1)c1cccc(OCc2ccccc2)c1 [CBK270011]	103.878
Nc1cc(-c2ccco2)nn(Cc2c(Cl)cccc2Cl)c1=O [CBK282880]	70.027
O=C(Cc1n[nH]c(=O)[nH]c1=O)N/N=C/c1cccc(Br)c1 [CBK263086]	113.659
